Structures are written as SMILES. About 230 (0.21%) of roughly 110,000 compounds showed an effect of 50% or more. Some of the results follow.
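Further: 30 min substrate incubation versus DMSO and 10 µM JCP410 controls.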

Sequence of DPAP1 (Q8IIJ9 whole entry, looked up): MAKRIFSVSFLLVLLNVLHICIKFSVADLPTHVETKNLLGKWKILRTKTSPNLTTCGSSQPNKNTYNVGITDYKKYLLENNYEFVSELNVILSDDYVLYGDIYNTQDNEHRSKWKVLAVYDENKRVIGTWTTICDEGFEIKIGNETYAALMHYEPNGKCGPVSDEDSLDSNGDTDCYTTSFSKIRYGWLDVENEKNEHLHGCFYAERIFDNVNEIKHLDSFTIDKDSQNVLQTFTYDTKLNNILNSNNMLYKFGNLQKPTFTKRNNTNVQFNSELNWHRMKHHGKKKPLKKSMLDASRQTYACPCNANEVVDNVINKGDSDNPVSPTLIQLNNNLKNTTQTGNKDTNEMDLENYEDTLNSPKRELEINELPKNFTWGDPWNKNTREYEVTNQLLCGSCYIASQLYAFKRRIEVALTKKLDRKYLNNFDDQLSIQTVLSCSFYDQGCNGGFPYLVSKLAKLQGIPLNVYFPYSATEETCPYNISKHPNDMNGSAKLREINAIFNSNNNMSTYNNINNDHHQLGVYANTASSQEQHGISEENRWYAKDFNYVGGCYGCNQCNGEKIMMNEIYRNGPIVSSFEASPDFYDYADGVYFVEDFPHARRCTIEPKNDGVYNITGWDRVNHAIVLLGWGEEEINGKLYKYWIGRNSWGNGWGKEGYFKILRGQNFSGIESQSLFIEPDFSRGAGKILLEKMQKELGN

This experiment concerns the target DPAP1 (Plasmodium falciparum, UniProt Q8IIJ9). The experiment in a line: primary screen, percent inhibition; read by cleavage of a fluorogenic dipeptide substrate; higher = more effect of the substance. Also on record: species or system P. falciparum D10 trophozoite lysates; single well.
As to `O=C1c2sc3nc4n(c(=O)c3c2CCC1Sc1ccccc1)CCCCC4` (stereo not drawn), the “% Inhibition @ 10 uM” value is given as 4.54%.

Take `CC(=O)c1ccc(NC(=O)C(C)(C(F)(F)F)C(F)(F)F)cc1`: the “% Inhibition @ 10 uM” value is listed as -3.09%.

As to `COc1cc(C2c3c(-c4ccccc4O)n[nH]c3C(=O)N2CCCO)cc(OC)c1OC` (stereo not drawn), the “% Inhibition @ 10 uM” value was -1.35%.

Take `CCCN1CCN(CCCNC(=O)c2sc3nc(C)cc(C)c3c2-n2cccc2)CC1`: the “% Inhibition @ 10 uM” value is -6.82%.

With `COc1ccccc1Nc1nc(NCC2CCCO2)c2ccccc2n1` (stereo not drawn), the “% Inhibition @ 10 uM” value was determined as 0.472%.

For the compound `Cc1cc(/C=C2/NC(=O)N(c3ccccc3)C2=O)c(C)n1C(C)C`, the “% Inhibition @ 10 uM” value is listed as -0.95%.

Consider `Cc1ccc(S(=O)(=O)NCCC(=O)NCCCN2CCOCC2)cc1`, for which the “% Inhibition @ 10 uM” value is on record as -0.406%.

In the case of `CC(C)OCCCNC(=O)c1cc(-c2cccnc2)nc2ccccc12`, the “% Inhibition @ 10 uM” value is -2.26%.

`CC1CCc2c(sc(NC(=O)COc3ccc(Cl)cc3)c2C(N)=O)C1` (stereo not drawn): the “% Inhibition @ 10 uM” value was -2.46%.

For the compound `O=C(CSc1ncccn1)Nc1cccc(C(F)(F)F)c1`, the “% Inhibition @ 10 uM” value was -7.62%.

On to `COc1ccc(-c2noc(CC(=O)N3CCC(C)CC3)n2)cc1`, for which the “% Inhibition @ 10 uM” value worked out at 4.84%.

Turning to `CN(C)c1ccnc2sc(C(=O)c3ccccc3)c(N)c12`, the “% Inhibition @ 10 uM” value worked out at 3.05%.

Regarding `Cc1nc2ccc(Cl)cc2c(-c2ccccc2)c1C(=O)O`, the “% Inhibition @ 10 uM” value was -3.14%.

In the case of `O=C(Cn1nc(-c2ccccc2)ccc1=O)NCC1CCCO1` (stereo not drawn), the “% Inhibition @ 10 uM” value is listed as -1.21%.

`CC1CC(C)CN(C(=O)Cn2c(=O)c3cccn3c3cccnc32)C1` (stereo not drawn): the “% Inhibition @ 10 uM” value is on record as -4.46%.

On to `CCOc1cc(/C=C2/C(=N)N3OC(C)=CC3=NC2=O)ccc1OCCOc1cccc(OC)c1`, for which the “% Inhibition @ 10 uM” value was -5.1%.

Regarding `CCOC(=O)N1CCC(NC(=O)c2cc(S(=O)(=O)N3CCCC3)cn2C)CC1`, the “% Inhibition @ 10 uM” value was -1.56%.

With `Cc1cc(C)c2c(-n3cccc3)c(C(=O)NCCCN3CCCC3=O)sc2n1`, the “% Inhibition @ 10 uM” value was found to be 3.87%.

On to `Nc1ccc(C2(c3ccc(N)cc3)CCCCC2)cc1`, for which the “% Inhibition @ 10 uM” value came out at 0.135%.

For the compound `N#CC(C#N)=Cc1cccc(Oc2ccccc2)c1`, the “% Inhibition @ 10 uM” value is reported as -5.36%.

As for `CCN(CCO)Cc1csc2c(Br)cccc12`, the “% Inhibition @ 10 uM” value is reported as -6.33%.

Regarding `Cc1cc(C(=O)Nc2cnn(Cc3ccc(Cl)cc3Cl)c2)no1`, the “% Inhibition @ 10 uM” value is recorded as -3.12%.

As for `CCC(=O)c1cc2c(cc1NC(=O)c1cccc(Cl)c1)OCCO2`, the “% Inhibition @ 10 uM” value is reported as -5.23%.

For the compound `c1ccc2c(CSc3nc[nH]n3)cccc2c1`, the “% Inhibition @ 10 uM” value is recorded as -4.31%.

On to `COc1ccc(S(=O)(=O)NC2CCC(NS(=O)(=O)c3ccc(OC)cc3)CC2)cc1` (stereo not drawn), for which the “% Inhibition @ 10 uM” value is -5.23%.

For the compound `CC(=O)c1c(S)nc(-c2ccccc2)nc1N1CCN(Cc2ccccc2)CC1`, the “% Inhibition @ 10 uM” value is reported as 29.2%.

Consider `Cc1ccccc1-n1nnc(-c2nc(-c3ccncc3)no2)c1N`, for which the “% Inhibition @ 10 uM” value is reported as -2.15%.

As for `O=C(CN(C(=O)c1ccccc1)c1ccccc1)c1ccccc1`, the “% Inhibition @ 10 uM” value was 0.565%.

For `C=Cn1cnc2c1c(=O)n(C)c(=O)n2C`, the “% Inhibition @ 10 uM” value is -0.467%.

On to `CN1CCC(N(C)Cc2cc(Br)cs2)CC1`, for which the “% Inhibition @ 10 uM” value came out at 2.33%.

For the compound `CCCCOc1ccc(C(C)NC(=O)CCS(=O)(=O)Cc2ccc(C)cc2)cc1` (stereo not drawn), the “% Inhibition @ 10 uM” value is -0.0542%.

As for `N=C1S/C(=C/c2ccc(-c3cccc(F)c3)o2)C(=O)N1c1nccs1`, the “% Inhibition @ 10 uM” value stood at 5.14%.

With `O=C1/C(=C/c2cccnc2)CS/C1=C\c1cccnc1`, the “% Inhibition @ 10 uM” value was 1.16%.

In the case of `O=C(Nc1ccc2oc(-c3cccc(Br)c3)nc2c1)c1ccco1`, the “% Inhibition @ 10 uM” value was -0.297%.

For `Cc1ccc(Nc2cc(C)nc(-c3ccccc3O)n2)cc1`, the “% Inhibition @ 10 uM” value is given as -1.59%.

Regarding `CCOC(=O)c1c(C)[nH]c(C)c1S(=O)(=O)N1CCC(C(=O)NCC(C)c2ccccc2)CC1` (stereo not drawn), the “% Inhibition @ 10 uM” value worked out at 0.533%.

Regarding `Cc1ccc(NC(=O)CN(c2ccccc2F)S(C)(=O)=O)cc1C`, the “% Inhibition @ 10 uM” value was 2.02%.

As for `CCOC(=O)C1=C(C)N(CC(C)C)C(=O)/C1=C\c1ccccc1OCc1ccccc1`, the “% Inhibition @ 10 uM” value was 1.81%.

Regarding `CC(=O)C1=C(C)CC2C3CC=C4CC(O)CCC4(C)C3CCC12C` (stereo not drawn), the “% Inhibition @ 10 uM” value amounted to 5.04%.

With `CC(C)C[C@H](NC(=O)c1cccc(S(=O)(=O)N2CCN(C)CC2)c1)C(=O)NCC#N`, the “% Inhibition @ 10 uM” value was 3.66%.

Regarding `CN1C(=O)C2Cc3c([nH]c4ccccc34)C(c3cccnc3)N2C1=S` (stereo not drawn), the “% Inhibition @ 10 uM” value was -1.8%.

As for `O=C(O)C1CC=CCC1C(=O)NCc1ccc(Cl)c(Cl)c1` (stereo not drawn), the “% Inhibition @ 10 uM” value was determined as 2.03%.

Take `O=C(/C=C/c1ccccc1)c1ccc2c(c1)OCCO2`: the “% Inhibition @ 10 uM” value is listed as -0.414%.

As to `Cc1ccc(NC(=O)C(c2ccccc2)c2ccccc2)cc1NC(=O)C(c1ccccc1)c1ccccc1`, the “% Inhibition @ 10 uM” value is recorded as 2.54%.

`O=C(O)/C=C/C(=O)NCc1ccccc1`: the “% Inhibition @ 10 uM” value was -0.807%.

On to `O=C(NCC1CCCO1)c1cc2n(n1)C(C(F)(F)F)CC(c1cccs1)N2` (stereo not drawn), for which the “% Inhibition @ 10 uM” value is recorded as 0.812%.

`Cc1ccc(C)c(N2CCN(S(=O)(=O)c3ccc(F)cc3)CC2)c1`: the “% Inhibition @ 10 uM” value is recorded as 3.35%.

In the case of `Cc1c(C(=O)NC(C)C)sc2ncn(CC(=O)N3CCC(C)CC3)c(=O)c12`, the “% Inhibition @ 10 uM” value came to 8.71%.

As for `CC(C)N(CCCNC(=O)c1ccc(CS(=O)(=O)Cc2ccccc2F)o1)Cc1ccccc1`, the “% Inhibition @ 10 uM” value is recorded as 2.35%.

As to `N#CC1=C(N)N(c2c(F)cccc2F)C2=C(C(=O)CCC2)C1c1cccs1` (stereo not drawn), the “% Inhibition @ 10 uM” value is recorded as -3.46%.

As for `N#C/C(=C\c1ccc(O)cc1)c1nc(-c2ccc(Cl)cc2)cs1`, the “% Inhibition @ 10 uM” value is recorded as -7.55%.

For the compound `COc1cccc(/C=C2\C(=O)/C(=C/c3cccc(OC)c3OC)C3CCC2N3C)c1OC`, the “% Inhibition @ 10 uM” value is reported as -1.31%.

Turning to `COc1ccc(C2(C#N)CCC(=O)CC2)cc1OC`, the “% Inhibition @ 10 uM” value was -2.63%.

For `Cc1cccc2nc3ccccc3cc12`, the “% Inhibition @ 10 uM” value is -5.34%.

Turning to `N#Cc1c(-c2ccccc2)nc2n(-c3ccccc3)nc(C(=O)Nc3ccccc3)n2c1=O`, the “% Inhibition @ 10 uM” value is on record as -0.759%.

With `CC1CCN(S(=O)(=O)N2CCCC(C(=O)NC3CCCCC3C)C2)CC1` (stereo not drawn), the “% Inhibition @ 10 uM” value was -3.12%.

On to `COCCNC(=O)c1cc2c(=O)oc3ccc(C)cc3c2s1`, for which the “% Inhibition @ 10 uM” value stood at 2.5%.

With `CCOC(=O)c1c(NC(=O)C2CCCN2S(=O)(=O)c2ccccc2)sc2c1CCCC2` (stereo not drawn), the “% Inhibition @ 10 uM” value worked out at 0.408%.

In the case of `Nc1c(NCc2ccccc2)c2ccccc2oc1=O`, the “% Inhibition @ 10 uM” value is listed as -0.636%.

`O=C(NCCCN1CCOCC1)c1cc(-c2ccc(O)cc2)on1`: the “% Inhibition @ 10 uM” value is -1.96%.

For the compound `Cc1ccc(C2=C/C(=C/c3ccc(-c4cccc(C(=O)O)c4)o3)C(=O)O2)cc1`, the “% Inhibition @ 10 uM” value is reported as 5.1%.

Take `NC(=O)C1CCCN(C/C=C/c2ccccc2)C1` (stereo not drawn): the “% Inhibition @ 10 uM” value came out at 3.48%.

On to `Cc1ccc(N2C(=O)c3ccccc3C2Nc2nc(C)cs2)nc1` (stereo not drawn), for which the “% Inhibition @ 10 uM” value is -2.83%.
